# Laboratory results as given in the supplement of paper PMC8728848.
# The list shows a part of the results.
# B1: FimA-N1 (Actinomyces oris) (protein)
# chain: MHHHHHHSSGVDLGTENLYFQSNATETPNYGNIKTDATGSLVIHKHLTGGGKDIGTPTGTAQNADDKGPAVEGVVFTAYPITDINLKDPAGWDTISNLSRTGVPDSACANPAAPTLGAHQFGTPKVSPATTKEGLATITEMPVQAYLVCETTTPGDIVQKAKPFVVTIPHPNTAAGADGQWIYDVNVYPKNEAIDVDKTIQAQK
# Key:
# Test in all cases: glycan array binding signal (z-score within array); higher = stronger binding
# Settings in all cases: glycan notation: IUPAC condensed, linker removed
# [1] = biological target: Fuc(a1-2)Gal
# Summary of the method: (§1)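 Arrays were curated from the Consortium for Functional Glycomics database, 3228 in total, and kept only where the protein sequence was available. Binding is expressed as a within-array Z-score. This score was averaged across arrays of the same protein sequence at different concentrations or buffers and across linkers, and negative values can be read as non-binding.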
# [2] = biological target: Fuc(a1-2)Gal(b1-3)GalNAc
# Summary of the method: as §1
# [3] = biological target: Fuc(a1-2)Gal(b1-3)GalNAc(a1-3)[Fuc(a1-2)]Gal(b1-4)Glc
# Summary of the method: as §1
# [4] = biological target: Fuc(a1-2)Gal(b1-3)GalNAc(a1-3)[Fuc(a1-2)]Gal(b1-4)GlcNAc
# Summary of the method: as §1
# [5] = biological target: Fuc(a1-2)Gal(b1-3)GalNAc(b1-3)Gal
# Summary of the method: as §1
# [6] = biological target: Fuc(a1-2)Gal(b1-3)GalNAc(b1-3)Gal(a1-4)Gal(b1-4)Glc
# Summary of the method: as §1
# [7] = biological target: Fuc(a1-2)Gal(b1-3)GalNAc(b1-4)[Neu5Ac(a2-3)]Gal(b1-4)Glc
# Summary of the method: as §1
# [8] = biological target: Fuc(a1-2)Gal(b1-3)GlcNAc
# Summary of the method: as §1
# [9] = biological target: Fuc(a1-2)Gal(b1-3)GlcNAc(b1-2)Man(a1-3)[Fuc(a1-2)Gal(b1-3)GlcNAc(b1-2)Man(a1-6)]Man(b1-4)GlcNAc(b1-4)GlcNAc
# Summary of the method: as §1
# [10] = biological target: Fuc(a1-2)Gal(b1-3)GlcNAc(b1-2)Man(a1-3)[Fuc(a1-2)Gal(b1-3)GlcNAc(b1-2)Man(a1-6)]Man(b1-4)GlcNAc(b1-4)[Fuc(a1-6)]GlcNAc
# Summary of the method: as §1
# [11] = biological target: Fuc(a1-2)Gal(b1-3)GlcNAc(b1-3)Gal(b1-4)Glc
# Summary of the method: as §1
# [12] = biological target: Fuc(a1-2)Gal(b1-3)GlcNAc(b1-3)GalNAc
# Summary of the method: as §1
# [13] = biological target: Fuc(a1-2)Gal(b1-3)GlcNAc(b1-3)[Fuc(a1-2)Gal(b1-3)GlcNAc(b1-6)]GalNAc
# Summary of the method: as §1
# [14] = biological target: Fuc(a1-2)Gal(b1-3)GlcNAc(b1-3)[Gal(b1-4)GlcNAc(b1-6)]Gal(b1-4)Glc
# Summary of the method: as §1
# [15] = biological target: Fuc(a1-2)Gal(b1-3)GlcNAc(b1-3)[Neu5Ac(a2-6)Gal(b1-4)GlcNAc(b1-6)]Gal(b1-4)Glc
# Summary of the method: as §1
# [16] = biological target: Fuc(a1-2)Gal(b1-3)GlcNAc6S
# Summary of the method: as §1
# [17] = biological target: Fuc(a1-2)Gal(b1-3)[Fuc(a1-4)]GlcNAc
# Summary of the method: as §1
# [18] = biological target: Fuc(a1-2)Gal(b1-3)[Fuc(a1-4)]GlcNAc(b1-2)Man(a1-3)[Fuc(a1-2)Gal(b1-3)[Fuc(a1-4)]GlcNAc(b1-2)Man(a1-3)]Man(b1-4)GlcNAc(b1-4)GlcNAc
# Summary of the method: as §1
# [19] = biological target: Fuc(a1-2)Gal(b1-3)[Fuc(a1-4)]GlcNAc(b1-2)Man(a1-3)[Fuc(a1-2)Gal(b1-3)[Fuc(a1-4)]GlcNAc(b1-2)Man(a1-6)]Man(b1-4)GlcNAc(b1-4)[Fuc(a1-6)]GlcNAc(b1-4)[Fuc(a1-6)]GlcNAc
# Summary of the method: as §1
# [20] = biological target: Fuc(a1-2)Gal(b1-3)[Fuc(a1-4)]GlcNAc(b1-3)[Fuc(a1-3)[Gal(b1-4)]GlcNAc(b1-6)]Gal(b1-4)Glc
# Summary of the method: as §1
# [21] = biological target: Fuc(a1-2)Gal(b1-3)[Fuc(a1-4)]GlcNAc(b1-3)[Gal(b1-4)GlcNAc(b1-6)]Gal(b1-4)Glc
# Summary of the method: as §1
# [22] = biological target: Fuc(a1-2)Gal(b1-4)Glc
# Summary of the method: as §1
binder,measurement,setting,value
B1,glycan array binding signal (z-score),[1],-0.18
same,glycan array binding signal (z-score),[2],-0.402
same,glycan array binding signal (z-score),[3],-0.336
same,glycan array binding signal (z-score),[4],-0.25
same,glycan array binding signal (z-score),[5],2.83
same,glycan array binding signal (z-score),[6],-0.245
same,glycan array binding signal (z-score),[7],-0.117
same,glycan array binding signal (z-score),[8],-0.136
same,glycan array binding signal (z-score),[9],-0.181
same,glycan array binding signal (z-score),[10],-0.204
same,glycan array binding signal (z-score),[11],-0.268
same,glycan array binding signal (z-score),[12],-0.224
same,glycan array binding signal (z-score),[13],-0.128
same,glycan array binding signal (z-score),[14],-0.277
same,glycan array binding signal (z-score),[15],-0.19
same,glycan array binding signal (z-score),[16],-0.093
same,glycan array binding signal (z-score),[17],-0.275
same,glycan array binding signal (z-score),[18],0.231
same,glycan array binding signal (z-score),[19],-0.015
same,glycan array binding signal (z-score),[20],-0.187
same,glycan array binding signal (z-score),[21],-0.183
same,glycan array binding signal (z-score),[22],-0.366
